According to PMC7819943, “Rice protein-binding microarrays: a tool to detect cis-acting elements near promoter regions in rice”:
Some of the results follow.

These sequences were tested against T1, OsWOX13 (Oryza sativa, UniProt Q5QMM3 1-267) (assay: protein-binding microarray (RPBM); PBS, 2% BSA, 51.3 ng/ul salmon testes DNA, 50 uM zinc acetate, 200 nM TF, 25 C, 1 h; high values mean tight binding). Settings: protein: recombinant; tags: N-terminal polyhistidine and DsRed monomer fusion (pET32a); label: CyDye5-dUTP incorporated in the synthesized complementary strand; 3' TTTTT single-stranded linker to array surface; dsDNA, one strand shown.
T1 sequence: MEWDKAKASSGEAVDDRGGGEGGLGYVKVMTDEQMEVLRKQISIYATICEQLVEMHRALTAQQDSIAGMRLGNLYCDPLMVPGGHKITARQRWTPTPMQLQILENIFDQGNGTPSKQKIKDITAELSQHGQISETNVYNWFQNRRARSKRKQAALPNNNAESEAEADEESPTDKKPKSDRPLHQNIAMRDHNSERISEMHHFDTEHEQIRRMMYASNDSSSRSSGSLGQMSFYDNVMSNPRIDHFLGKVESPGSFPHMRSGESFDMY
Outline: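 Per-feature fluorescence intensity (arbitrary units), read on an Axon 4000B scanner, is the binding signal. Transcription factors carrying an N-terminal polyhistidine tag and DsRed fusion were expressed in E. coli BL21-CodonPlus and purified on Ni–NTA. A custom Agilent array, made double-stranded by primer extension with Cy5-dUTP and blocked with 2% BSA, was incubated with 200 nM protein in PBS, 2% BSA, salmon testes DNA and 50 µM zinc acetate at 25 °C for 1 h and then washed.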

Row | Sequence | binding signal
1 | CATACTTAATTAACACGTTATAGACAGCGTCTTCAAAACCCGGAGTCACCTAGTGCAG | 21800 fluorescence intensity (a.u.)
2 | GTAAAAGTTAATTGATTTGTTTATACCCTCAAATAGCCATCGGAGTCACCTAGTGCAG | 58700 fluorescence intensity (a.u.)
3 | TATGAGATATCATTTAATTATATAATAAATATAATGATGTCGGAGTCACCTAGTGCAG | 4610 fluorescence intensity (a.u.)
4 | TTAAATAGTATAGTCAATTAATAGCTCTAAGATTTAACCACGGAGTCACCTAGTGCAG | 12800 fluorescence intensity (a.u.)
5 | TACTAATTGTGATGCACACAGCATGACAACGGTAGCTAGGCGGAGTCACCTAGTGCAG | 21400 fluorescence intensity (a.u.)
6 | TTCGATTTTAATTGGATGTGTACTTGTGTATGATGTATACCGGAGTCACCTAGTGCAG | 22900 fluorescence intensity (a.u.)
7 | CCCCATCAAGACCAATTGGGGCATGCACGAGTTCACCAAGCGGAGTCACCTAGTGCAG | 27100 fluorescence intensity (a.u.)
8 | TGCACTTTGTCTAAATTGATAGCTAAAATTTATTACTCCACGGAGTCACCTAGTGCAG | 22900 fluorescence intensity (a.u.)
9 | GTGATTGATCTTGCATCCATGGAGTCGGGCTACGGCTTCCCGGAGTCACCTAGTGCAG | 43300 fluorescence intensity (a.u.)
10 | GTGGCTTGATCTCTAGTTAATTACCTCCTCCCATATATGACGGAGTCACCTAGTGCAG | 4890 fluorescence intensity (a.u.)
11 | TAACTAATTGCACATATTACGACTAACTTGTGAGACGAATCGGAGTCACCTAGTGCAG | 12300 fluorescence intensity (a.u.)
12 | CCTTTGTTGTGACAAATGTAAATTGATGTGAGAAATCATGCGGAGTCACCTAGTGCAG | 6700 fluorescence intensity (a.u.)
13 | AGAAGGAAATTATTTCTGATGATGTATGGTGCAAGTGGCTCGGAGTCACCTAGTGCAG | 4920 fluorescence intensity (a.u.)
14 | ATATAGTTACCAAAATTTGACAGCAAACTAAATGTAGCCACGGAGTCACCTAGTGCAG | 7890 fluorescence intensity (a.u.)
15 | TTTTGACTAATAATCATACTAACTATATCTATACTAAGTACGGAGTCACCTAGTGCAG | 17500 fluorescence intensity (a.u.)
16 | GGCTAACAAGATATGACAGTTTTGTGTACGAAGTGCTAGACGGAGTCACCTAGTGCAG | 3270 fluorescence intensity (a.u.)
17 | TTGCTGTTCTCACTAATCAATCAATAATACCTCTCTTTTCCGGAGTCACCTAGTGCAG | 13100 fluorescence intensity (a.u.)
18 | AGCTAATCTAATCATCGCACTAGCTAGCTAAAGCACCCACCGGAGTCACCTAGTGCAG | 10500 fluorescence intensity (a.u.)
19 | TACTCTTAGATTGAACAGGCTTCTGGCTCAAAACTTTTGACGGAGTCACCTAGTGCAG | 8550 fluorescence intensity (a.u.)
20 | GAGAATTAATTTCTTGGGCTGGGAACTCTTGGTCCGCTGCCGGAGTCACCTAGTGCAG | 15800 fluorescence intensity (a.u.)
21 | CCGTAATCTCAATTAACCCGTGGTAATCGGAAAACCGGATCGGAGTCACCTAGTGCAG | 22900 fluorescence intensity (a.u.)

Row | Sequence | binding signal
22 | TTGTTGTCATTCAATTAGCACTTAAACTTCTGTAGCATAACGGAGTCACCTAGTGCAG | 15400 fluorescence intensity (a.u.)
23 | TGGGTTAATTGGGTTGGGTGGGCCGCTGCCTATGTGGCGGCGGAGTCACCTAGTGCAG | 24200 fluorescence intensity (a.u.)
24 | AAACCTATGACAATCAACCTTTTGACTGTCATACTAGCTCCGGAGTCACCTAGTGCAG | 9360 fluorescence intensity (a.u.)
25 | AAATTAGCAAATTGGTTGTCAAAATATTATTACCCAAACACGGAGTCACCTAGTGCAG | 5170 fluorescence intensity (a.u.)
26 | GAATGTTGATAGGCATGTCATCGATCTTTTCGTTAGAACTCGGAGTCACCTAGTGCAG | 7550 fluorescence intensity (a.u.)
27 | GTTGACTGTTGACGAAGATCAGTCAATCTGTGCAGGTTGCCGGAGTCACCTAGTGCAG | 16700 fluorescence intensity (a.u.)
28 | AGGGCTTAATTGTGAAAACTACCCAAACATGGGCCTCGTACGGAGTCACCTAGTGCAG | 17300 fluorescence intensity (a.u.)
29 | TATTTAATCATTAGCCTATGAATACATGCCATCAGAAATCCGGAGTCACCTAGTGCAG | 4300 fluorescence intensity (a.u.)
30 | AAATAATTAATTTGGAGAATTTGTTTGGACGATTTGAAACCGGAGTCACCTAGTGCAG | 37000 fluorescence intensity (a.u.)
31 | TTAAACTAATTGTGGGAAGAAATAATATTTCACATCAGTGCGGAGTCACCTAGTGCAG | 24700 fluorescence intensity (a.u.)
32 | CTGGAAATTAAATAATGTGTACGTTCTCCCTCAATTTGTGCGGAGTCACCTAGTGCAG | 6980 fluorescence intensity (a.u.)
33 | AACTATTTTGAAGTTAATTGCAATATGTGATGAACTGATGCGGAGTCACCTAGTGCAG | 7050 fluorescence intensity (a.u.)
34 | ACCATCATCTATTACCTAATCTATATATAGCAGCACATACCGGAGTCACCTAGTGCAG | 4170 fluorescence intensity (a.u.)
35 | ATTAACATAATAGCACATTAGCTCAATTTATCTATATGTTCGGAGTCACCTAGTGCAG | 8240 fluorescence intensity (a.u.)
36 | TCGGAAATTGAGTTCGTTCCTGGTTCTCACACTGCTCAAACGGAGTCACCTAGTGCAG | 3220 fluorescence intensity (a.u.)
37 | TATAAACTGCGAGTTAGCACATCACTGACAACTTGGTCCCCGGAGTCACCTAGTGCAG | 5240 fluorescence intensity (a.u.)
38 | AGGCTCTGTGACTGATGATGATCGAGAATTTCTCATGTACCGGAGTCACCTAGTGCAG | 5630 fluorescence intensity (a.u.)
39 | TGCTAATTGGGGCTATTTGCTGTGGGCCCCACCGATTCCCCGGAGTCACCTAGTGCAG | 35600 fluorescence intensity (a.u.)
40 | AACGCAAACTTAGTTATTGGTAGTGACTGCCAAAACATGCCGGAGTCACCTAGTGCAG | 4030 fluorescence intensity (a.u.)
41 | CTTCCTTGATGGATCTTAGCAGTGTATAAAGTACAGCTACCGGAGTCACCTAGTGCAG | 4730 fluorescence intensity (a.u.)
42 | TGTGTCATAATTAGCAGTTACTTCTTGGCTACTCCTGTTACGGAGTCACCTAGTGCAG | 11200 fluorescence intensity (a.u.)
